Assay results as given in PubChem BioAssay AID1159614 (National Center for Advancing Translational Sciences (NCATS), 2016).
Out of some 45,000 compounds screened, about 65 (0.1%) were called active. The call rests on the fitted dose curve; in most records, active means well fitted activation curve with a large enough effect; inconclusive means small, poorly fitted or top-dose-only effect; inactive means no such curve, though single readings can be large or run the other way. The list shows a part of the results.

Biological target: Galactocerebrosidase (Homo sapiens) (UniProt P54803)
Chain of UniProt P54803 (P54803 whole entry, looked up): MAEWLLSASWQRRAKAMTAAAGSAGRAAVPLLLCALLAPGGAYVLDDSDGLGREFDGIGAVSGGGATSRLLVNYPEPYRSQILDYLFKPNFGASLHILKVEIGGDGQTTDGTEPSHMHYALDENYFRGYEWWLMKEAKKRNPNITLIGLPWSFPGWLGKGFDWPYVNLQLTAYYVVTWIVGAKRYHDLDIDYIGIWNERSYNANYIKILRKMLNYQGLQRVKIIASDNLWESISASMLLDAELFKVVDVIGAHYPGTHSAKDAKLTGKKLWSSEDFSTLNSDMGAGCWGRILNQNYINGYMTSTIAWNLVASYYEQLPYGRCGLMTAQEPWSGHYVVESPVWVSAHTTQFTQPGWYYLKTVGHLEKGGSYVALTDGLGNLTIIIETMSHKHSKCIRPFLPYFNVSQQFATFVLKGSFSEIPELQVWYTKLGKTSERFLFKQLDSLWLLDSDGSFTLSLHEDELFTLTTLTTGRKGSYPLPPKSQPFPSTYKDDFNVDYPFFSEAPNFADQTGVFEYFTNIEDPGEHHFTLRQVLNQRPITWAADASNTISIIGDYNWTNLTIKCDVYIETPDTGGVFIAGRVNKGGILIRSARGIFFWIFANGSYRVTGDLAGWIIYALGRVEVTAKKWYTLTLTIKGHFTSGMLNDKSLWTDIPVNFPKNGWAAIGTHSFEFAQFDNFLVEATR
Assay: A Novel Cell-Based Assay to Identify Small Molecules for B -Galactocerebrosidase; further: 0% is about no effect; nearly all actives have a fitted effect of over 65% in size
Conditions: 145M-Twi-hGALC-G270D cells (Twitcher mouse brain line with human GALC G270D), HMU-beta-Gal fluorescence, 48 h; series mostly up to 57.5 µM; activation: at the top concentration
Method in brief: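 Live 145M-Twi cells (Twitcher mouse brain-derived, GALC-null) stably expressing human GALC-G270D, with a wild-type GALC line, were compound-treated. Residual GALC activity was then read as fluorescence from 0.1 mM final HMU-β-gal at pH 5.2; higher signal means activation.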

activation, inactive:
CN(Cc1ccco1)S(=O)(=O)c1nnc(NC(=O)c2ccccc2Cl)s1 -4.82%
CCC(=O)N1CCc2cc(S(=O)(=O)NC(C(=O)NCCc3cccc(C)c3)C(C)C)ccc21 (stereo not drawn) -1.07%
O=C(NCc1cccs1)c1ccc(CSc2nc3ccncc3n2Cc2ccccc2F)cc1 -17.5%
Cc1nn(C)c(C)c1CCNC(=O)Nc1ccccc1C(F)(F)F -16.7%
COc1ccc(N2CC(NC(=O)/C=C\c3ccccc3)CC2=O)cc1OC (stereo not drawn) -6.65%
CCN(CC)c1nn2c(=O)c(C(=O)NCc3ccc(N(C)C)cc3)cnc2s1 -12.1%
COc1ccccc1CNC(=O)C1CCN(S(=O)(=O)c2cn(C)cn2)CC1 -9.99%
Cc1ccc(C2c3[nH]c4ccccc4c3CCN2C(=O)CSCc2ccc(F)cc2)cc1 (stereo not drawn) -4.81%
O=C(NCCc1csc(-c2ccc(F)cc2)n1)c1cccc(F)c1 -14.3%
CCc1ccccc1N(C)C(=O)c1sc2nc3n(c(=O)c2c1C)CCCCC3 -11.6%
COc1ccc(C(=O)CCC(=O)Nc2ccc(C)c(Cl)c2)cc1 -11.7%
CC1CCCN(CCCNC(=O)c2cc3c(Cl)nc4ccccc4c3s2)C1 (stereo not drawn) -15.8%
COc1cc(Cl)c(C)cc1Nc1nc2ccccc2n2cnnc12 5.64%
CCOc1ccc(Br)cc1S(=O)(=O)Nc1cccc(-c2ccc(OC)nn2)c1 -13.3%
Cc1ccc(C)c(N2CCN(C(=O)CN3C(=O)COc4ccc(S(=O)(=O)N5CCC(C)CC5)cc43)CC2)c1 -8.49%
COc1ccc(NC(=O)c2c(C)oc3ccc(O)c(CN4CCCCCC4)c23)cc1 -5.08%
Cc1[nH]cnc1-c1ccc(Cl)cc1 -11.5%
CCn1nnc2cc(C(=O)Nc3ccc(OC)cc3)ccc21 -18.8%
COc1ccc(-n2c(=O)c3c4c(sc3n(Cc3ccc(C(C)(C)C)cc3)c2=O)CCC4)c(OC)c1 -11.3%
Cc1ccc(Cl)cc1N1CCN(C(=O)c2ccc3c(c2)N(Cc2ccccc2)CCS3)CC1 -11.6%
O=c1[nH]c(=O)n([C@H]2C[C@H](O)[C@@H](CO)O2)cc1Br -15.8%
Cc1ccc(N2CCN(S(=O)(=O)c3ccc(-n4cnnn4)cc3)CC2)c(C)c1 -8.55%
O=C(NCCc1ccccc1)c1nn(-c2ccccc2Cl)nc1CO -24.6%
Fc1ccc(Nc2c(-c3ccccn3)nc3ccc(Cl)cn23)cc1 -1.51%
O=C(Nc1cc(Cl)cc(Cl)c1)c1cc(S(=O)(=O)N2CCC3(CC2)OCCO3)ccc1F -11.2%
COc1ccc(OC)c(NC(=O)CCNC(=O)Cn2cnc3ccccc3c2=O)c1 -19.3%
COc1cccc(NC(=O)Cc2csc(COc3cccc(C)c3)n2)c1 -5.82%
COc1cc(NC(C)CCCN)c2ncccc2c1 (stereo not drawn) -7.78%
COc1ccc(CCNC(=O)c2cc(=O)[nH]c3ccc(S(=O)(=O)N4CCCCC4C)cc23)cc1OC (stereo not drawn) -6%
Cc1cn2c(=O)cc(COC(=O)c3ccc(NC(=O)C(C)Oc4ccccc4)cc3)nc2s1 (stereo not drawn) -22.8%
CCOCCCNC(=O)c1c(NC(=O)c2nc(SC)ncc2Cl)sc2c1CCCC2 -15.7%
COCCn1c(C)cc(O)c(C(c2ccc(OC)cc2)N2CCN(c3ccccc3)CC2)c1=O (stereo not drawn) -20.5%
CCCCC1(COC(=O)CCC(=O)O)C(=O)N(c2ccccc2)N(c2ccccc2)C1=O -10.6%
Cc1ccc(C)c(-n2nnc(C(=O)Nc3ccc(Br)cc3)c2C)c1 -8.12%
NS(=O)(=O)c1ccc(NC(=O)c2csnn2)cc1 -16.6%
CC(C)c1ccc(NC(=O)c2cnc3sc(N4CCOCC4)nn3c2=O)cc1 6.29%
COc1ccc(NC(=O)CN(C)S(=O)(=O)c2ccc3c(c2)c(=O)n(C)c(=O)n3C)cc1 -6.56%
COc1ccc(OC)c(NC(=O)Cn2cnc3onc(-c4ccc(Cl)cc4)c3c2=O)c1 -1.57%
COc1cccc(-c2nc(CS(=O)(=O)CC(=O)NCCc3ccc(Cl)cc3)c(C)o2)c1 -17.7%
Cc1ccc(-n2ncc3c(Nc4cccc(C(F)(F)F)c4)ncnc32)cc1C 3.54%
Cc1cc2c(cc1S(=O)(=O)NCc1ccccc1Cl)OCC(=O)N2 -9.84%
Cc1cc(C)cc(NC(=O)COCc2cc(-c3ccc4c(c3)OCO4)on2)c1 -15.3%
CCOCCn1c(=O)c2c(nc3n2CCN3c2ccc(C)c(C)c2)n(C)c1=O -13%
COc1cccc(N2CCN(C(=O)C3CCN(S(=O)(=O)c4cn(C)cn4)CC3)CC2)c1 -12.7%
CC1CCCCN1C(=O)CSc1c2c(nc3cc(Cl)ccc13)CCCC2 (stereo not drawn) -16.1%
CCc1ccc(-n2nc(CO)c(C(=O)NCc3cccs3)n2)cc1 -12.2%
COc1ccc(-c2nc3ccc(Cl)cn3c2Nc2ccc(C)cc2)cc1 -6.9%
CCCCNC(=O)c1cn(C)c2ccc(S(=O)(=O)N3CCCC3)cc2c1=O -14.5%
Cc1ccc(C(=O)NCC(c2ccco2)S(=O)(=O)c2ccc(Cl)cc2)cc1C (stereo not drawn) -20.7%
COc1ccc(OCC2c3cc(OC)c(OC)cc3CCN2C(=O)c2c(F)cccc2F)cc1 (stereo not drawn) -21.2%
Cc1ccc(NC(=O)CCn2c(=O)c3cccn3c3ccccc32)cc1Cl -12.4%
O=C(CSc1nc(=O)n(Cc2ccco2)c2c1CCC2)NCc1ccc(Cl)cc1 -16.4%
COc1cc(OC)c(NC(=O)Cn2cnc3sc(C)c(S(=O)(=O)N4CCC(C)CC4)c3c2=O)cc1Cl -8.25%
COc1ccc(N2CC(NC(=O)C(=O)c3c(C)[nH]c4ccccc34)CC2=O)cc1 (stereo not drawn) -16.2%
COc1ccccc1CNC(=O)CSc1nc(=O)[nH]c2c1CCCC2 -3.31%
CCN(Cc1ccccc1)C(=O)Cn1c(=O)n(-c2ccc(Cl)c(Cl)c2)c(=O)c2c(C)c(C(=O)N(C)C)sc21 -9.61%
Cc1cc(C)c2nc(N(Cc3cccnc3)C(=O)Cc3ccccc3)sc2c1 -8.58%
Cc1cc(C)n(-c2nc3ccccc3nc2Nc2cc(Cl)ccc2C)n1 -13.7%
Cc1cc(NC(=O)Nc2nnc(N3CCCCC3)s2)ccc1Br -14.3%
CC(C)(CC(=O)OCC(=O)Nc1ccccc1F)CC1=NS(=O)(=O)c2ccccc2N1 -7.83%
CCOC(=O)Cn1c(=O)c2c(nc(N3CCOCC3)n2Cc2ccccc2)n(C)c1=O -13.1%
O=C(COc1ccc([N+](=O)[O-])cc1)N1CCC(c2nc3ccccc3s2)CC1 -22.7%
CC(=O)c1cccc(-n2c(=O)c3c4c(sc3n(CC(=O)Nc3ccccc3F)c2=O)CN(C(C)=O)CC4)c1 -4.45%
COc1cc(NC(=O)c2ccc3c(Cl)c4c(nc3c2)CCC4)cc(OC)c1OC -20.8%
COc1cc(-c2ccc(=O)[nH]n2)ccc1OC(F)F 6.54%
CCc1ccc(CNC(=O)C2CCN(c3nnc(C)c4c(C)n(-c5ccc(C)cc5)nc34)CC2)cc1 -10.8%
CCOc1ccc(N(C(C)C(=O)NCCSc2ccc(Cl)cc2)S(C)(=O)=O)cc1 (stereo not drawn) -2.21%
Cc1nc(N2CCOCC2)c2c(C(=O)N(C)Cc3ccccc3)c(C)oc2n1 -9.44%
CCOc1cccc2sc(N3CCN(C(=O)C(C)(C)C)CC3)nc12 -17.9%
O=C(Nc1nnc(S(=O)(=O)N2CCCCCC2)s1)c1ccccc1F -15.5%
O=C(Cn1nc(-c2ccccc2)c2cnc3ccc(F)cc3c21)NC1CCCC1 0.182%
CCOC(=O)C1CCN(c2cc(C)nc3c(-c4ccccc4OC)c(C)nn23)CC1 -3.67%
Cc1ccc(-c2nnc(SCC(=O)N3CCCc4ccccc43)o2)cc1 -7.69%
Cc1cc(NC(=O)CSc2nc3c([nH]c4ccccc43)c(=O)n2-c2ccccc2F)no1 -10.2%
CCCCNc1nc(Oc2ccc(=O)n(-c3ccccc3)n2)nc(N(CC)CC)n1 5.21%
Cc1ccc(NC(=O)c2nnn(Cc3cccc(C(F)(F)F)c3)c2N)c(C)c1 -21.5%
COc1cccc(Cn2ccn(-c3ccc(F)cc3)c(=O)c2=O)c1 -12.1%
O=C(Nc1ccc(Cl)cc1)N1CCC(CN2CCCCCC2)CC1 -3.83%
Cc1ccc(C(=O)c2oc3ccccc3c2NC(=O)c2cc(=O)c3cc(C)ccc3o2)cc1 -14%
CCNC(=O)C1CCCN(c2ncnc3onc(C)c23)C1 (stereo not drawn) -6.6%
COC(=O)c1ccc(-n2nnc(-c3nc(-c4ccccc4Cl)no3)c2C)cc1 -12.1%
COc1ccc(NC(=O)Cn2cc(C(=O)c3ccncc3)c(=O)c3cc(C)ccc32)cc1Cl -24.8%
Cc1cccc(Cn2c(SCc3ccc(C(=O)NCc4ccccc4)cc3)nc3cccnc32)c1 -13.1%
Cc1ccc(OCC(=O)Nc2ccc3c(c2)sc(=O)n3C)cc1 -12.6%
COc1ccc(-n2c(=O)[nH]c3cc(C(=O)NCCc4ccc(Cl)cc4)ccc3c2=O)cc1OC -15.1%
CCOC(=O)c1c(NC(=O)COc2ccc(CC)cc2)sc2c1CCCC2 5.93%
COc1cc(OC)cc(C(=O)Nc2ccc(-c3nc4ccccc4s3)c(C)c2)c1 -10.1%
CN1CCN(C(=O)Cn2c(-c3cccs3)cc3ccccc32)CC1 -5.51%
Cc1ccc(N2C(=O)CS(=O)(=O)C23C(=O)N(Cc2ccccc2C)c2ccccc23)cc1Cl (stereo not drawn) -25.5%
COc1ccc(NC(=O)Cn2nc(-c3ccccc3)c3cnc4ccc(C)cc4c32)cc1 -0.459%
Cc1ccc2c(=O)c(C(=O)c3ccccc3)cn(CC(=O)Nc3ccc(C)c(Cl)c3)c2n1 -9.16%
CCCNC(=O)c1ccc2c(c1)nc(C)n2-c1cccc(C)c1 -14%
Cc1nn(C)c2c1c(C(F)(F)F)cc(=O)n2C(C)C(=O)NCCC(C)C (stereo not drawn) -14.2%
Cc1ccc(-c2nc(C(=O)N3CCN(c4ccccc4)CC3)c3n2CCCCC3)cc1 -7.8%
CCC(Sc1ncccc1C(=O)Oc1ccccc1Cl)C(=O)Nc1ccccc1OC (stereo not drawn) -1.84%
COc1ccc(NC(=O)C(NC(=O)C2CCC(C)CC2)C(C)C)cc1 (stereo not drawn) -12.9%
Cc1ccc(C)c(CSc2nnc3[nH]c(=O)cc(-c4ccccc4)n23)c1 -3.44%
COc1ccc(CNC(=O)C2CCN(S(=O)(=O)c3ccc4c(c3)CCCN4C(C)=O)CC2)cc1 -17.3%
